# Whole data set: some 33,000 sequences, median “E-score (-0.5 to 0.5)” near -0.04, cut for the highest 2% near 0.36. The list shows a part of the results.
# Target: T1, Hmlalpha2 (UniProt P0CY09)
# T1 sequence: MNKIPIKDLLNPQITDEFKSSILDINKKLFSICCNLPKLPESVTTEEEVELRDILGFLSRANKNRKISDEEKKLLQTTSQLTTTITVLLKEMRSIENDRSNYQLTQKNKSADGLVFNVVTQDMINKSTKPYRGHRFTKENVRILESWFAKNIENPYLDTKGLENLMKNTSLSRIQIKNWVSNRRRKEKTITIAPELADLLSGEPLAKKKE
# Experiment: PBM E-score (8-mer binding enrichment) (E-score (-0.5 to 0.5)); higher = stronger / more preferred TF binding; most listed sequences are background and not binding sites
# Settings: protein concentration: 200 nM; construct: GST-full length
# How it was run: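 Using PURExpress in vitro transcription/translation, GST-tagged yeast transcription factors were made in full-length or DNA-binding-domain form. These were applied at about 100-200 nM to double-stranded universal all-10-mer Agilent arrays, and bound protein was detected with fluorescent anti-GST. Scans were normalised with masliner before the Universal PBM Analysis Suite assigned E-scores to ungapped eight-base words pooled with their reverse complements.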
row,Sequence,PBM E-score
1,AAGTCATT,-0.0479
2,CAATGAGC,-0.109
3,TATAAAAA,0.275
4,AGAGGTAG,-0.0868
5,AAGCCTAA,-0.103
6,CTAGACTC,-0.307
7,ATGCATGA,0.177
8,ATACCGTC,-0.106
9,CAATTGTG,0.151
10,CATGAGCA,0.00254
11,AAGTCTCC,-0.0711
12,CTGATACA,0.0773
13,CGACTACG,0.0352
14,CGCAGATC,0.052
15,AAACTCAT,0.193
16,AGCCACAC,-0.0838
17,TAAACTCA,0.184
18,CGGCGCCG,-0.0854
19,CGAGTCAA,0.0736
20,AGACATGC,0.171
21,AACTCTCC,-0.112
22,CGAAACAG,-0.215
23,TGCGTGAA,0.257
24,GCTACCAC,-0.0738
25,AGGTGCAT,0.072

row,Sequence,PBM E-score
1,CAGCTGTC,-0.127
2,AAGGGGTA,-0.0636
3,AACACCGA,0.193
4,GTCTTGCA,0.0355
5,GCATCACA,0.18
6,AGCTCGCC,-0.174
7,GCATCGAA,-0.157
8,AATCTACT,0.098
9,ATTCGTGG,-0.033
10,CTGCGGGA,-0.26
11,GCCTACAC,0.22
12,AGACCGTG,0.194
13,ACGTGAGC,0.0336
14,ACCCAGGG,-0.0987
15,TAACATCA,0.338
16,GAATCCGC,-0.252
17,TAGGACGA,-0.145
18,CCGACCGC,-0.276
19,GTCTGACA,0.0205
20,ACGCGTCA,0.339
21,ATTTAAGC,0.109
22,CGAATCCA,-0.014
23,TGTATACA,0.428
24,GCAGCCTA,-0.0908
25,GTGCATTA,0.262

row,Sequence,PBM E-score
1,CACATCGG,-0.122
2,AGCATCTA,-0.0432
3,GGCACCTA,-0.28
4,AGAGAATA,-0.00331
5,AGTCGAGC,-0.233
6,AGTAATTC,0.21
7,AAACATTG,0.198
8,TCCCTTCA,-0.169
9,ACACCCAG,0.0143
10,CTATCCAA,-0.17
11,AATAAGGG,-0.126
12,AACATCGG,0.0502
13,ACGCTACG,0.0651
14,GACGTAGC,-0.0226
15,CTGTCCTC,-0.2
16,GTATGTGA,0.199
17,CGTAAACA,0.394
18,ATAGAGCA,0.04
19,GTCAGGTA,-0.0231
20,CATATGTA,0.356
21,AGCTGACG,-0.0477
22,TAGCTTCA,-0.0838
23,CGACATGA,0.319
24,GGACCAAC,0.0946
25,AAATGGGC,-0.161

row,Sequence,PBM E-score
1,CGAGGTAC,-0.0192
2,TAGTGATA,-0.00532
3,CTACTTCC,-0.0725
4,ATATTCTA,0.169
5,CTTCATTA,0.0939
6,CAACACCA,0.207
7,GGTGATGA,-0.126
8,GGAGATGA,-0.0226
9,CGCTACCA,-0.152
10,AAACGAAC,0.148
11,TACGAGCA,-0.00974
12,CCTTTTCC,-0.249
13,GTTGCTGA,0.0934
14,ACAAACAC,0.308
15,GGTCAACA,0.239
16,CATCAACC,0.0266
17,CATTTTGC,-0.0318
18,AGGGATAC,0.0215
19,AACCAGCG,-0.185
20,GTTCATGA,-0.0103
21,CTCAATAC,0.241
22,AGCGCATG,-0.0303
23,CATTAGCG,-0.22
24,ATGCTCAG,-0.00397
25,AGCAGAAA,0.0454

row,Sequence,PBM E-score
1,AGAGATGA,-0.146
2,GATTCCTA,-0.0294
3,AACCCAAC,0.0182
4,ACTAGAAA,-0.0256
5,TAGTCCCA,-0.18
6,ATGAAGCA,0.104
7,ACTTTGAC,0.231
8,CGCATGGC,-0.0395
9,GAAAGACA,0.0253
10,CGGCAATC,-0.158
11,GATGACGC,-0.0678
12,AGTATTTG,0.116
13,AGAGCAAC,-0.0126
14,ATTGCGGG,-0.0686
15,AACGTTAT,0.248
16,ACGTAACT,0.0826
17,CCGGATCG,-0.176
18,ACATACCA,0.227
19,CTCATTCC,-0.195
20,GGTCGGGA,-0.122
21,CGTTCTGA,-0.0682
22,GCAGTTCA,-0.1
23,CAGGTTTC,-0.0759
24,AGAACTCG,-0.0182
25,CCGGGTTA,-0.151

row,Sequence,PBM E-score
1,AGCGCTAT,0.105
2,AAGACCGA,-0.0337
3,GTGTGCCA,-0.0612
4,AAGCGCTC,-0.125
5,CTGTGAGA,-0.108
6,ATTCCTAC,0.0421
7,ATTATCCG,0.0567
8,AAGTCAAT,0.0827
9,AGTCACGA,0.0156
10,CGTTACTA,0.129
11,CTCTCACA,-0.00636
12,CCGGAGGC,-0.306
13,GAGACTTA,-0.038
14,AGACATCC,-0.192
15,AGCCATAA,-0.0349
16,AAGCGTAA,0.152
17,CTCCATGA,-0.0886
18,GACATATA,0.163
19,TCAAACGA,0.11
20,AGGCCCCT,-0.196
21,ATTCATTC,0.0937
22,CATTTTAC,0.303
23,CACGGACA,0.0886
24,TACTGCGA,-0.05
25,AGTGAGGC,-0.165

row,Sequence,PBM E-score
1,CCACCCAC,-0.141
2,GCCTGCTA,-0.128
3,AGCACGAA,0.167
4,CTTATGCA,0.135
5,GTAAGTAC,0.234
6,CTTCGGCA,-0.198
7,AGGTTCTC,-0.144
8,AGATTACC,0.0994
9,ACCAAATC,-0.143
10,CCTCCCAC,-0.13
11,TAATGGTA,0.0468
12,TAATTGCA,0.199
13,GTCTTGTA,0.306
14,ATCTGGCC,-0.263
15,ATACCGCC,-0.111
16,GTCTAGAC,-0.272
17,CCCCAAGA,-0.00112
18,ACGAGTTA,0.184
19,GCAGCTTA,0.046
20,CGCTATTC,0.125
21,ATTGTATG,0.0486
22,CAGCCGTC,-0.132

# Source: the supplement of paper PMC3334620
